No constants are given. Whether binding was seen depends on the method and setting. Some results given as binding are weak or reduced against the parent protein; the word gives no strength. Where a sequence is shown, tags or fusion partners need not be part of it.
How the values were obtained:
[1] = biological target: soluble hGPC3 protein (recombinant human glypican 3) (human) (UniProt P51654); assay: ELISA, recombinant mAbs on hGPC3
[2] = biological target: soluble hGPC3 protein (recombinant human glypican 3) (human) (UniProt P51654); assay: BLI, mAb on anti-hIgG Fc capture sensor, GPC3 at 62.5 to 1000 nM
[3] = biological target: soluble hGPC3 protein (recombinant human glypican 3) (human) (UniProt P51654); assay: ELISA of recombinant mAb on hGPC3, OD450
[4] = biological target: N2 (30-68) (human) (UniProt P51654); assay: ELISA on plate-coated synthetic peptide, anti-human IgG-HRP
[5] = biological target: N3 (59-97) (human) (UniProt P51654); assay: as above
[6] = biological target: N4 (88-126) (human) (UniProt P51654); assay: as above

The chains behind the UniProt entries cited, without tags or fusion partners. Where a name states a change or a piece, a line headed by the entry shows the natural chain unless it says otherwise. Residues count along the entry.
UniProt P51654: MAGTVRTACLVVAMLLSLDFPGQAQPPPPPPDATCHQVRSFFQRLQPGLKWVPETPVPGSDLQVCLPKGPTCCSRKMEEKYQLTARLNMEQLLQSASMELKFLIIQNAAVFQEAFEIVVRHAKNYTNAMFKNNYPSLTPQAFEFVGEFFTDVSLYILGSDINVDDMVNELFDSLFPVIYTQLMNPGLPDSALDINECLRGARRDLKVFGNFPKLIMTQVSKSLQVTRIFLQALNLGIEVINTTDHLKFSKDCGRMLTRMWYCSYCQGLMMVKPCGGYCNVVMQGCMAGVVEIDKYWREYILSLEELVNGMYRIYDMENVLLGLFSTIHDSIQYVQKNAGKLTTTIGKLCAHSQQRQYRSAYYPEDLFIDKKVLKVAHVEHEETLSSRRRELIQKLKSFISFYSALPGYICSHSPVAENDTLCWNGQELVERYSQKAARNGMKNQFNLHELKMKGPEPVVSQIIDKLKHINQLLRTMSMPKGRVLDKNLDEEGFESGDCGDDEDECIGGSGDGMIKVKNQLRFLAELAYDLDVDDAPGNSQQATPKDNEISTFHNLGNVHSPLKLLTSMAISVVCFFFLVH
soluble hGPC3 protein (recombinant human glypican 3): residues 25-560 of P51654
N2 (30-68): residues 30-68 of P51654
N3 (59-97): residues 59-97 of P51654
N4 (88-126): residues 88-126 of P51654

Measured: binding

B1: recombinant mAb 6G11 (6G11 VL and VH fused to human IgG constant regions) (antibody, V domains shown)
VH: QVQLQQPGSELVRPGASVKLSCKASGYTFTSCWMHWVKQRPGQGLEWIGNIYPGYGNTNYDEKFKNKATLTVDTSSSTAYMQLSGLTSEDSAVYYCTRGSYLYAMDYWGQGTSVTVSS
VL: DIQMNQSPSSLSASLGDTITITCHASQNINVWLSWYQQKPGNIPKLLIYKASNLHTGVPSRFSGSGSGTGFTLTISSLQPEDIATYYCQQGQSYPWTFGGGTKLEIKR
no binding (tested: 10 µg/ml): [5] | [6]
binds: all other assays above

B2: recombinant mAb 12D7 (12D7 VL and VH fused to human IgG constant regions) (antibody, V domains shown)
VH: QVQLQQPGSELVRPGASVKLSCKASGYTFTSYWMHWVKQRLGQGLEWIGNIYPGSGSTNYDEKFKSKGTLTVDTSSSTAYMHLSSLTSEDSAVYYCTRGDYDWVFAYWGQGTLVTVSA
VL: DIVMTQSQKFMSTSVGDRVSVTCKASQNVGTNVAWYQQKPGQSPKALIYSASYRYSGVPDRFTGSGSGTDFTLTISNVQSEDLAEYFCQQYNSYPLTFGAGTKLELKR
binds: [1] | [2] | [3]
